Among all 230,000 compounds or so, about 1,500 (0.65%) were called active. Inconclusive results, whose numbers are uncertain, are shown with a selection of clear calls. Calls follow the shape of the dose curve; as a rule, active = well fitted inhibition curve with a large enough effect; inconclusive = small, poorly fitted or top-dose-only effect; inactive = no such curve, though single readings can be large or run the other way. Potencies beside an inconclusive call are fits to weak or partial responses and may not hold up. The source holds several records for some structures; these can differ, active in one and inactive in another.
The compounds below were run against Lethal(3)malignant brain tumor-like protein 1 (Homo sapiens) (UniProt Q9Y468) (assay: qHTS Assay for the Inhibitors of L3MBTL1). Conditions: AlphaScreen L3MBTL1–H3K9me1 peptide binding; activity, negative = inhibition: at 57.1 µM (top of the series).
Chain of UniProt Q9Y468 (Q9Y468 whole entry, looked up): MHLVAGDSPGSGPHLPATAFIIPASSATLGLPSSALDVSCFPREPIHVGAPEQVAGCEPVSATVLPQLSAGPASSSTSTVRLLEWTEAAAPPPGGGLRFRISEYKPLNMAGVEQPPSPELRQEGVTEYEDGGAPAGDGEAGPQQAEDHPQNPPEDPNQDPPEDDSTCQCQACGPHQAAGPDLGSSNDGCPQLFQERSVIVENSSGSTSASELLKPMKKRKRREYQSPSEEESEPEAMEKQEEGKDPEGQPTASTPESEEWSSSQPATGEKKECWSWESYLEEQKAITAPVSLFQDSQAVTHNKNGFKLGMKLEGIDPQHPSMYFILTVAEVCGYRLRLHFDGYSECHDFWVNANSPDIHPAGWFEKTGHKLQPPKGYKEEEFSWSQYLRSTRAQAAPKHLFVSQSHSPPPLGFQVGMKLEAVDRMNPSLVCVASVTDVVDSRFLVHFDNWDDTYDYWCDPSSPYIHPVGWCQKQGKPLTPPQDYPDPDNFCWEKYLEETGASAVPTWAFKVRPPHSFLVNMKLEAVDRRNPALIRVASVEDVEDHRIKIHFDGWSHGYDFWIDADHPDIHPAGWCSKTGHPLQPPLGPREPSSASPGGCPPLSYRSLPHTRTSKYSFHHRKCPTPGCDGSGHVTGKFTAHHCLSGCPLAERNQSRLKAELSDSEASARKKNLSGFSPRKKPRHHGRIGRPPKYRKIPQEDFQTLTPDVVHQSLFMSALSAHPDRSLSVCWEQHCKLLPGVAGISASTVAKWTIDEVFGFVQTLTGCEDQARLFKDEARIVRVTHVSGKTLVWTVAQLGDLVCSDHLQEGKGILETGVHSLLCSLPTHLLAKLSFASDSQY
In short: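 AlphaScreen assay: L3MBTL1 (50 nM final) was preincubated 30 min at room temperature with biotinylated H3(1-15)K9me1 peptide (75 nM final), then 30 min with library compounds; streptavidin donor and nickel chelate acceptor beads (10 ug/mL final) added, 30 min dark.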
% is scaled to controls: 0 for no effect and ±100 for the full control effect; potency is read from the fitted curve at half-maximal effect; tags tell the direction and shape of the fitted curve.
Also: nearly all actives have a fitted effect of over 60% in size.

Structure (SMILES) | Potency | activity, negative = inhibition
CC(NC(=O)CN1c2cccc3cccc(c23)S1(=O)=O)c1ccc(S(N)(=O)=O)cc1 (stereo not given) | inconclusive: 28.2 µM [inhibitor, partial curve] | 
Cc1cccc(N/C=C(\[N+](=O)[O-])S(=O)(=O)c2ccccc2)c1C | inconclusive: 10 µM [inhibitor, partial curve, poor fit] | 
NS(=O)(=O)c1ccc(CNC(=S)NC2CC2)cc1 | inactive | 
Cc1ccc(N2CCN(C3=NC(=O)/C(=C\c4cccs4)S3)CC2)cc1 | inconclusive: 28.2 µM [inhibitor, single point] | 
Cc1cnc(C(=O)Nc2ccccc2-n2cccc2)cn1 | inconclusive: 25.1 µM [inhibitor, single point] | 
COc1ccccc1-c1nnc(SCC(=O)NC2CCCCC2)o1 | inconclusive: 39.8 µM [inhibitor, single point] | 
COc1ccc(/C=N/Nc2ncnc(Cl)c2N)cc1OC | inactive | 
CN(Cc1ccco1)Cc1ccc(O)c2ncccc12 | active: 11.2 µM | 
CN(C)c1cccc(C(=O)N(Cc2ccccc2)Cc2ccccc2)c1 | inconclusive: 15.8 µM [inhibitor, partial curve] | 
Cn1c(C(=O)O)c(CC(=O)NCC2COc3ccccc3O2)c2ccccc21 (stereo not given) | inactive | 
CCN(CC)C(=O)[C@H]1CC(CC(=O)NC/C=C(\C)CCC=C(C)C)C(=O)N2CCc3c([nH]c4ccc(OC)cc34)[C@]12C (stereo not given in full) | inactive | 
CCCC(=O)NC(c1ccc(OC)cc1)c1ccc2cccnc2c1O (stereo not given) | inconclusive: 25.1 µM [inhibitor, single point] | 
Cc1cccc(NC(=S)NCCc2ccc3c(c2)OCCO3)c1C | inconclusive: 44.7 µM [inhibitor, partial curve, poor fit] | 
O=C(O)CC1NCCc2ccccc21 (stereo not given) | inactive | 
CCCC(c1nnnn1C(C)(C)C)N1CCN(c2ccccc2)CC1 (stereo not given) | inactive | 
O=C(CSc1nnc(COc2ccccc2Cl)o1)NC(=O)NCc1ccco1 | active: 14.1 µM | 
O=C(COc1ccccc1C(=O)N/N=C\c1ccc(O)c(O)c1)N/N=C/c1ccc(O)c(O)c1 | active: 1.58 µM | 
Cc1cccc(Nc2nc(N)c([N+](=O)[O-])c(NCc3ccccc3)n2)c1 | inconclusive: 15.8 µM [inhibitor, partial curve] | 
O=C(COC(=O)Cc1ccc(S(=O)(=O)N2CCOCC2)s1)Nc1ccc([N+](=O)[O-])cc1 | inconclusive: 28.2 µM [inhibitor, single point] | 
Cc1cccn2c(=O)c(C=Nc3ccc(Cl)cc3)c(NCCO)nc12 | inconclusive: 3.55 µM [inhibitor, single point] | 
COc1cccc(=O)c2c(C)n(-c3ccc(C(=O)O)cc3)c(C)c12 | active: 25.1 µM | 
Cc1cc(C)cc(NC(=S)/C(=C(\[O-])c2ccc(Cl)s2)[n+]2cccc(C)c2)c1 | inconclusive: 28.2 µM [inhibitor, partial curve] | 
CNC(=S)N1CCn2cccc2C1c1ccc(F)cc1 (stereo not given) | inactive | 
CC(=S)c1c(C)cc2cc(C)ccn12 | inconclusive: 31.6 µM [inhibitor, single point] | 
CC1NC(=O)NC1CCCCCC(=O)NCCc1ccccc1 (stereo not given) | active: 1.41 µM | 

Structure (SMILES) | Potency | activity, negative = inhibition
CC[C@]12c3[nH]c4ccc(OC)cc4c3CCN1C(=O)C(CC(=O)NCCCOC)C[C@@H]2C(=O)N1CCN(C(=O)C2CC2)CC1 (stereo not given in full) | inactive | 
Cc1ccc(-c2csc(CC(N)=O)n2)cc1 | inconclusive: 5.62 µM [inhibitor, single point] | 
Oc1ccccc1/C=N/NC(=S)NC1CC2CCC1C2 (stereo not given) | inconclusive: 5.01 µM [inhibitor, partial curve] | 
CN=c1scc(-c2ccccc2F)n1/N=C(\C)c1cccnc1 | inconclusive: 39.8 µM [inhibitor, single point] | 
Cc1ccc(C2C3=C(CC(C)(C)CC3=O)NC3=C2C(=O)c2ccccc23)cc1 (stereo not given) | inconclusive: 39.8 µM [inhibitor, partial curve] | 
O=[N+]([O-])c1cccc(/C=N/Nc2nc(NCc3ccccc3)nc(N3CCOCC3)n2)c1O | inactive | 
O=C(NCc1ccc2c(c1)OCO2)C1CCN(c2ccc(S(=O)(=O)N3CCCC3)cc2)CC1 | inconclusive: 2.82 µM [inhibitor, partial curve] | 
COc1nccnc1NS(=O)(=O)c1ccc(NC(=S)NC(=O)c2ccc(F)cc2)cc1 | inactive | 
O=C(O)c1ccc2c(c1)NC(=O)C(N1CCCC1)S2 (stereo not given) | inconclusive: 39.8 µM [inhibitor, single point] | 
c1ccc(-c2cnnn2-c2ccccc2)cc1 | inactive | 
O=c1oc(-c2ccccc2)nc2sc3c(c12)CCC3 | active: 12.6 µM | 
O=C(Nc1cc(Cl)ccc1Cl)c1ccco1 |  | inactive: 0.19% [at 2.29 µM]
Cn1c(=O)n(C)c2cc(CN3C(=O)OC(C)(C)C3(C)O)ccc21 (stereo not given) | inconclusive: 35.5 µM [inhibitor, single point] | 
S=C(N=Nc1ccccc1)NNc1ccccc1 |  | inconclusive: -43% [inhibitor]
CC(=O)/C(=N\Nc1ccc(C)cc1)N1CCOCC1 | inactive | 
Nc1nc(-c2ccc(-n3nncc3-c3ccco3)cc2)cs1 | inconclusive: 25.1 µM [inhibitor, single point] | 
CN(C)S(=O)(=O)N1CCC(c2ccc(F)cc2)C(COc2ccc3c(c2)OCO3)C1 (stereo not given) | inconclusive: 11.2 µM [inhibitor, partial curve] | 
CC(C)c1nnc(NC(=O)CCS(=O)(=O)c2nc(-c3cccs3)cc(C(F)(F)F)n2)s1 | inactive | 
Nc1ccc(N2CCCCC2)c(S(=O)(=O)Nc2ccccc2Cl)c1 | inconclusive: 25.1 µM [inhibitor, single point] | 
CC(C)OC(=O)c1cc2c(ccn2C)n1CC(=O)N1CCC(Cc2ccccc2)CC1 | inconclusive: 28.2 µM [inhibitor, single point] | 
O=C(O)c1ccc(-n2cccn2)nc1 | inactive | 
CCC(C)NCCOc1ccccc1C (stereo not given) | inactive | 
C=CCN1C(=O)C2(OCCCO2)c2ccccc21 | inconclusive: 3.55 µM [inhibitor, partial curve] | 
CCN(CC)c1ccc(/C=N/Nc2nc(C)cc(C)n2)c(O)c1 | inconclusive: 28.2 µM [inhibitor, partial curve] | 
CCOc1ccc(C(CC(=O)O)NC(=O)COc2ccccc2)cc1 (stereo not given) | inconclusive: 39.8 µM [inhibitor, single point] | 

Structure (SMILES) | Potency | activity, negative = inhibition
O=[N+]([O-])c1ccccc1-c1ccc(C(=S)N2CCCCC2)o1 | inconclusive: 3.98 µM [inhibitor, full curve, poor fit] | 
Cn1c(SCC(=O)c2ccc3c(c2)OCCO3)nnc1C1CC1 | inactive | 
Nc1ccccc1Nc1cc(-c2ccccc2)nn1-c1ccccc1 | inconclusive: 31.6 µM [inhibitor, single point] | 
CC(=NNS(=O)(=O)c1cccc([N+](=O)[O-])c1)c1ccc(-n2ccnc2)cc1 | inactive | 
CC(C)Oc1cccc(C(=O)C2CCCN(Cc3cccn3-c3cccnc3)C2)c1 (stereo not given) | inconclusive: 28.2 µM [inhibitor, single point] | 
O=S1(=O)NC(=NCc2ccco2)c2ccccc21 | inconclusive: 6.31 µM [inhibitor, single point] | 
CCOC(=O)C1=C(C)N=C2c3ccccc3C(=O)C2C1c1ccc(Br)cc1 (stereo not given) | inconclusive: 25.1 µM [inhibitor, partial curve] | 
CC(C)c1ccccc1-n1c(-c2cccnc2)n[nH]c1=S | inactive | 
O=C1C2C3C=CC(C3)C2C(=O)N1CNc1ccc(O)cc1 (stereo not given) | inconclusive: 31.6 µM [inhibitor, single point] | 
O=C(COC(=O)/C=C/c1cccc(Br)c1)NCc1ccco1 | inactive | 
COc1ccc(-n2c(C)cc(/C=C(\C#N)C(=O)NCc3ccco3)c2C)cc1 | inconclusive: 28.2 µM [inhibitor, single point] | 
Cc1cccc(Nc2ccc(S(=O)(=O)N3CCOCC3)cc2[N+](=O)[O-])c1 | inconclusive: 31.6 µM [inhibitor, single point] | 
O=C(NCCc1ccccc1)C(=O)Nc1nccs1 | inconclusive: 39.8 µM [inhibitor, single point] | 
Cc1ccc(/C=C/S(=O)(=O)NCC(=O)OCC(=O)Nc2ccc(C(N)=O)cc2)cc1 | inactive | 
C=CCn1c(-c2ccccc2OC)n[nH]c1=S | inactive | 
N[C@@H](Cc1cc(I)c(O)c(I)c1)C(=O)O | inactive | 
C=CCOC(=O)C1=C[C@H](c2ccc(Br)cc2)[C@@H](CCCO)[C@H](OCC)O1 | inconclusive: 0.794 µM [inhibitor, single point] | 
CCOC(=O)C1=NOC(CN(c2ccccc2)S(=O)(=O)c2ccc(Cl)cc2)C1 (stereo not given) | inconclusive: 0.1 µM [inhibitor, full curve, poor fit] | 
CC(=O)Nc1ccc(Nc2c3ccccc3nc3ccccc23)cc1 | inconclusive: 22.4 µM [inhibitor, partial curve, poor fit] | 
O=C(O)c1cc(N/N=C/c2ccc3c(c2)OCCO3)ccc1Cl | inconclusive: 35.5 µM [inhibitor, single point] | 
COc1ccc(N2C(=O)CSC23C(=O)Nc2ccccc23)cc1 (stereo not given) | inconclusive: 3.98 µM [inhibitor, partial curve] | 
Cc1cc(C)nc(SCC(=O)Nc2ncccn2)n1 | inactive | 
Cc1cc(C)c(C#N)c(SCCN2CCOCC2)n1 | inactive | 
CC(C)Nc1ccc(Nc2ccnc3cc4ccccc4cc23)cc1 | active: 14.1 µM | 
CCN1CCN(CC(O)COc2cccc(OC)c2)CC1 (stereo not given) | inactive | 

From PubChem BioAssay AID485360 (National Center for Advancing Translational Sciences (NCATS), 2010)
